In a collection of fitness landscapes (doi:10.1016/j.celrep.2020.107928):
The full ranking holds about 81,000 sequences; the median of “one-hybrid fitness for binding parS DNA” is about -0.17, and the highest 2% start at about 0.51. The list shows a part of the results.

B1: Caulobacter ParB omega fusion; a variant is named by its letters at X, in order, B8GW30 (parent)
chain: MESVVVGEPGMSEGRRGLGRGLSALLGEVDAAPAQAPGEQLGGSREAPIEILQRNPDQPRRTFREEDLEDLSNSIREKGVLQPILVRPSPDTAGEYQIVAGERAWRAAQRAGLKTVPIMVRELDDLAVLEIGIIENVQRADLNVLEEALSYKVLMEKFERTQENIAQTIGKSXSHVANXMRLLXLPDEVQSYLVSGELTAXHARAIAAAADPVALAKQIIEGGLSVRETEALARKAPNLSAGKSKGGRPPRVKDTDTQALESDLSSVLGLDVSIDHRGSTGTLTITYATLEQLDDLCNRLTRGI

Variants of: B1
Assay: one-hybrid fitness for binding parS DNA (scaled: cognate 1, non-cognate 0); higher = stronger binding
Details: with parS DNA site
Outline: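 Bacterial one-hybrid selection in E. coli USO rpoZ- hisB- pyrF- with a HIS3 reporter carrying the site 19 bp from the promoter, screening Caulobacter ParB libraries with four specificity codons randomised (NNS). Cells grew 48 hours at 37°C on M9-minus-histidine plus 0.1 mM IPTG and 5 mM 3-AT. Plasmids before and after selection were Illumina-sequenced, three replicate libraries pooled, and variants under 10 reads dropped. Fitness is the log change in variant-to-wild-type read ratio, rescaled to cognate 1, non-cognate 0.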

Variant | one-hybrid fitness for binding parS DNA
LSIH | ≤ 0.2
GFAT | ≤ 0.2
ANGI | ≤ 0.2
NLAN | ≤ 0.2
SMFV | ≤ 0.2
DVIG | ≤ 0.2
PLTP | ≤ 0.2
IDHV | ≤ 0.2
CLIV | ≤ 0.2
DCMM | ≤ 0.2
IRCK | ≤ 0.2
HSNA | ≤ 0.2
CTPL | ≤ 0.2
TAVF | ≤ 0.2
SPIR | ≤ 0.2
NYPG | ≤ 0.2
MLFT | ≤ 0.2
NQAR | ≤ 0.2
LLMK | ≤ 0.2
QIPR | ≤ 0.2
LDEC | ≤ 0.2
INVR | ≤ 0.2
YSTR | ≤ 0.2
ENRR | ≤ 0.2

Variant | one-hybrid fitness for binding parS DNA
PRRS | ≤ 0.2
QQPN | ≤ 0.2
PVEC | ≤ 0.2
DERP | ≤ 0.2
ARYF | ≤ 0.2
AMCP | ≤ 0.2
TFKY | ≤ 0.2
CNRN | ≤ 0.2
DHPP | ≤ 0.2
TDGM | ≤ 0.2
HAHK | ≤ 0.2
PYEL | ≤ 0.2
SHMW | ≤ 0.2
NEKI | ≤ 0.2
NGVE | ≤ 0.2
HFMV | ≤ 0.2
IMWS | ≤ 0.2
RDYG | ≤ 0.2
GPAT | ≤ 0.2
TMNG | ≤ 0.2
KTFT | ≤ 0.2
KYNW | ≤ 0.2
KKSS | ≤ 0.2
RVTM | 0.299

Variant | one-hybrid fitness for binding parS DNA
TVLF | ≤ 0.2
GKTF | ≤ 0.2
VKCT | ≤ 0.2
DGNR | ≤ 0.2
GQDP | ≤ 0.2
FRIR | ≤ 0.2
PKAE | ≤ 0.2
CHQV | ≤ 0.2
CLAE | ≤ 0.2
FHCW | ≤ 0.2
QFIL | ≤ 0.2
KWCG | ≤ 0.2
DFFS | ≤ 0.2
RWSL | ≤ 0.2
QVDG | ≤ 0.2
RHGE | 0.244
YHRG | ≤ 0.2
FPHT | ≤ 0.2
AKFR | ≤ 0.2
WELG | ≤ 0.2
RCRM | 0.365
CTLY | ≤ 0.2
VVTK | ≤ 0.2
KVKP | ≤ 0.2

Variant | one-hybrid fitness for binding parS DNA
LCSN | ≤ 0.2
NGFS | ≤ 0.2
VQQV | ≤ 0.2
VMAT | ≤ 0.2
CRVS | ≤ 0.2
TQKT | ≤ 0.2
CTHS | ≤ 0.2
WYLR | ≤ 0.2
KWET | ≤ 0.2
PIQY | ≤ 0.2
LDGT | ≤ 0.2
NSCK | ≤ 0.2
PQYN | ≤ 0.2
TSMN | ≤ 0.2
QGRA | ≤ 0.2
PLSA | ≤ 0.2
VLCF | ≤ 0.2
PVAG | ≤ 0.2
YPAW | ≤ 0.2
PYKP | ≤ 0.2
HLRD | ≤ 0.2
DRPV | ≤ 0.2
DLEC | ≤ 0.2
STHI | ≤ 0.2

Variant | one-hybrid fitness for binding parS DNA
VWQG | ≤ 0.2
YNHC | ≤ 0.2
GPHV | ≤ 0.2
PTSW | ≤ 0.2
CVKG | ≤ 0.2
KSTT | ≤ 0.2
THMF | ≤ 0.2
SDDI | ≤ 0.2
VKKS | ≤ 0.2
EILG | ≤ 0.2
QHYT | ≤ 0.2
TWSS | ≤ 0.2
FIHS | ≤ 0.2
PMPD | ≤ 0.2
PKCW | ≤ 0.2
HPDF | ≤ 0.2
AREA | ≤ 0.2
YLKA | ≤ 0.2
FTTF | ≤ 0.2
AYPF | ≤ 0.2
TGAK | ≤ 0.2
TPSD | ≤ 0.2
VPWV | ≤ 0.2
IPRH | ≤ 0.2

Variant | one-hybrid fitness for binding parS DNA
DTSR | ≤ 0.2
RHEW | ≤ 0.2
QNIF | ≤ 0.2
ARAA | ≤ 0.2
SKLN | ≤ 0.2
FRFG | ≤ 0.2
CNRQ | ≤ 0.2
DLET | ≤ 0.2
KDAT | ≤ 0.2
HPSH | ≤ 0.2
AWRF | ≤ 0.2
RSET | 0.653
PNMG | ≤ 0.2
HSIM | ≤ 0.2
DLQC | ≤ 0.2
TWKT | ≤ 0.2
DMTT | ≤ 0.2
THDP | ≤ 0.2
PLKR | ≤ 0.2
RSQD | ≤ 0.2
LLGM | ≤ 0.2
IHKH | ≤ 0.2
ITAA | ≤ 0.2
CWHR | ≤ 0.2

Variant | one-hybrid fitness for binding parS DNA
YARD | ≤ 0.2
LVPT | ≤ 0.2
VMKY | ≤ 0.2
KQAS | ≤ 0.2
GRTP | ≤ 0.2
LIYL | ≤ 0.2
NMSA | ≤ 0.2
CNFC | ≤ 0.2
SRCT | ≤ 0.2
MSTS | ≤ 0.2
VETM | ≤ 0.2
KIDL | ≤ 0.2
QTHL | ≤ 0.2
MTIT | ≤ 0.2
NHII | ≤ 0.2
APHN | ≤ 0.2
RSNY | 0.496
LPAT | ≤ 0.2
ANRQ | ≤ 0.2
VWTR | ≤ 0.2
SLPS | ≤ 0.2
PLVS | ≤ 0.2
EDPV | ≤ 0.2
GVHF | ≤ 0.2

Variant | one-hybrid fitness for binding parS DNA
RTVK | ≤ 0.2
ECKC | ≤ 0.2
DVIR | ≤ 0.2
DTIC | ≤ 0.2
WQLS | ≤ 0.2
LSRQ | ≤ 0.2
LKEL | ≤ 0.2
LMIC | ≤ 0.2
YSTV | ≤ 0.2
RVHC | 0.965
AFWG | ≤ 0.2
HCAG | ≤ 0.2
RFKH | 0.252
PNKD | ≤ 0.2
WNMP | ≤ 0.2
QSMT | ≤ 0.2
GNMT | ≤ 0.2
RLIW | ≤ 0.2
TSLQ | ≤ 0.2
AMTD | ≤ 0.2
LLTV | ≤ 0.2
VHRF | ≤ 0.2
DYST | ≤ 0.2
TNNA | ≤ 0.2

Variant | one-hybrid fitness for binding parS DNA
GMLH | ≤ 0.2
RQWH | ≤ 0.2
EHCN | ≤ 0.2
IGTF | ≤ 0.2
QRAK | ≤ 0.2
MDQG | ≤ 0.2
VESR | ≤ 0.2
ENHS | ≤ 0.2
DHTC | ≤ 0.2
MIMS | ≤ 0.2
RPQS | ≤ 0.2
MYYC | ≤ 0.2
SGDF | ≤ 0.2
IYPN | ≤ 0.2
SMHA | ≤ 0.2
KPQV | ≤ 0.2
TFIM | ≤ 0.2
MLFG | ≤ 0.2
TLND | ≤ 0.2
THAK | ≤ 0.2
RMER | ≤ 0.2
TNNF | ≤ 0.2
HCMS | ≤ 0.2
YQLG | ≤ 0.2

Variant | one-hybrid fitness for binding parS DNA
WSRC | ≤ 0.2
PMRT | ≤ 0.2
TWKN | ≤ 0.2
LHDM | ≤ 0.2
TCTL | ≤ 0.2
KVLY | ≤ 0.2
ACLA | ≤ 0.2
GSCC | ≤ 0.2
QCGK | ≤ 0.2
RMVD | ≤ 0.2
TKAD | ≤ 0.2
YTHL | ≤ 0.2
NAKI | ≤ 0.2
RSYA | 0.602
AANE | ≤ 0.2
NCRR | ≤ 0.2
NYNG | ≤ 0.2
GRKM | ≤ 0.2
QQEG | ≤ 0.2
KLTI | ≤ 0.2
GPQC | ≤ 0.2
SIDC | ≤ 0.2
RINM | 0.381
CYFC | ≤ 0.2

Variant | one-hybrid fitness for binding parS DNA
RIVQ | ≤ 0.2
DFIT | ≤ 0.2
LCLD | ≤ 0.2
MREY | ≤ 0.2
YNWS | ≤ 0.2
QTAL | ≤ 0.2
QPNN | ≤ 0.2
DMIS | ≤ 0.2
FPPC | ≤ 0.2
PYPS | ≤ 0.2
VDTG | ≤ 0.2
GDQT | ≤ 0.2
SKAT | ≤ 0.2
AAAM | ≤ 0.2
TDQY | ≤ 0.2
GVGA | ≤ 0.2
MHQV | ≤ 0.2
QRAV | ≤ 0.2
WEMG | ≤ 0.2
AASN | ≤ 0.2
LCST | ≤ 0.2
GWGR | ≤ 0.2
HKGS | ≤ 0.2
PNDL | ≤ 0.2

Variant | one-hybrid fitness for binding parS DNA
LCEL | ≤ 0.2
VDEV | ≤ 0.2
LMIG | ≤ 0.2
DYGL | ≤ 0.2
PNYD | ≤ 0.2
RSLF | 0.228
RCHN | 0.459
RTRV | ≤ 0.2
LIRL | ≤ 0.2
HGVA | ≤ 0.2
YIQV | ≤ 0.2
APKS | ≤ 0.2
PDLC | ≤ 0.2
LLYS | ≤ 0.2
DVAS | ≤ 0.2
GYHW | ≤ 0.2
NNLA | ≤ 0.2
QSRR | ≤ 0.2
ENKF | ≤ 0.2
TEYC | ≤ 0.2
VGIS | ≤ 0.2
TAWS | ≤ 0.2
YGLF | ≤ 0.2
NRAS | ≤ 0.2

Variant | one-hybrid fitness for binding parS DNA
LRVT | ≤ 0.2
QCLI | ≤ 0.2
HRCC | ≤ 0.2
LRYR | ≤ 0.2
LRAR | ≤ 0.2
GMTD | ≤ 0.2
NMKG | ≤ 0.2
LVCC | ≤ 0.2
MELI | ≤ 0.2
ILAD | ≤ 0.2
AAGK | ≤ 0.2
PHHC | ≤ 0.2
MYHW | ≤ 0.2
PLAG | ≤ 0.2
KQMS | ≤ 0.2
GHYL | ≤ 0.2
AHIH | ≤ 0.2
GEQR | ≤ 0.2
